Source: the RNAGym collection of RNA variant scans (doi:10.1093/nar/gkz1192)
The source gives no read counts; variants with many changes may rest on few reads.

B1: CPEB3 Ribozyme (parent)
chain: UAACAGGGGGCCACAGCAGAAGCGUUCACGUCGCAGCCCCUGUCAGAUUCUGGUGAAUCUGCGAAUUCUGCUGUAUAUCUC

Variants of: B1
Assay: self-cleavage, relative activity (ratio to wild type); higher = more cleavage; in vitro, sequencing
Procedure, shortened: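 Libraries of CPEB3 self-cleaving ribozyme mutants came from rounds of error-prone PCR and carried barcodes, which DNA sequencing matched to variants. In vitro transcription used T7 RNA polymerase at 37°C for 5 hours, with a further 15 min in DNase I before EDTA stopped the reaction; the ribozymes cleaved during both steps. The RNA was reverse transcribed with template switching and sequenced on Illumina. Relative activity is the cleaved/total read fraction of a variant divided by that of the unmutated ribozyme, averaged over three batches with at least 5 reads.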
For A45G G46U U58C, the self-cleavage was 0.24.
With A45U G53A U60C U67A the self-cleavage was 0.34.
For A45C U51C A64G, the self-cleavage was 0.21.
With A45G A64G U72A the self-cleavage was 0.57.
With A45U U58A U60A the self-cleavage was 0.26.
Variant A45G A56U C59G A64U U72C has a self-cleavage of 0.11.
C44G U49A U76C A77G gave a self-cleavage of 0.12.
In the case of U43C G55A A75G, the self-cleavage is reported as 0.2.
A45U U49C U58C A65G U76G showed a self-cleavage of 0.1.
Variant A47G U48C G55C has a self-cleavage of 0.2.
With A47G A57G C59A the self-cleavage was 0.21.
In the case of A47G U51G U74C, the self-cleavage is reported as 1.08.
Work on A47U U48A U78C yielded a self-cleavage of 0.38.
With A45C A65C U72C the self-cleavage was 0.15.
In the case of G42U A56U U60A U69C, the self-cleavage is reported as 0.09.
In the case of A45U U60C U67A U76C, the self-cleavage is reported as 0.14.
With U43C U49C U78C the self-cleavage was 0.27.
In the case of U43G C44G G55U, the self-cleavage is reported as 0.95.
Variant A45G U74A C81U has a self-cleavage of 1.15.
Work on A45G A47G A57U U66A U80A yielded a self-cleavage of 0.07.
Work on G42A U60A U72C yielded a self-cleavage of 0.22.
With A45G A64U U74C the self-cleavage was 0.35.
For A45C G52A U72G, the self-cleavage was 0.41.
A47G U69A U76C gave a self-cleavage of 0.86.
In the case of A45G U49C U51G U60A G70A C81G, the self-cleavage is reported as 0.18.
With U41G A47G U69C C81A the self-cleavage was 0.43.
Variant A45G U58A A64G U69C U80C has a self-cleavage of 0.15.
In the case of A47G A56G A64G, the self-cleavage is reported as 0.73.
Variant G46A U54C U67C U72A has a self-cleavage of 0.07.
For A45G U49A U51C U60C A65G, the self-cleavage was 0.27.
With A45U A47G U51A A57G the self-cleavage was 0.17.
In the case of U43C A65G A75U C81G, the self-cleavage is reported as 0.17.
With A45G G52A A75U the self-cleavage was 0.83.
Work on U43A U49G A56U A57G G61A yielded a self-cleavage of 0.38.
Variant U41G A57G U72C has a self-cleavage of 0.21.
Variant A45U U72A U74C A75G has a self-cleavage of 0.19.
Work on A45G A65G G73A yielded a self-cleavage of 0.79.
Work on A45G U54C U60A U69C yielded a self-cleavage of 0.22.
With U43A U54C C62U the self-cleavage was 0.18.
Variant G46U U54A A64U has a self-cleavage of 0.17.
In the case of U43A U49A G52A U74C, the self-cleavage is reported as 1.25.
With U43G U51C U67A U78A the self-cleavage was 0.03.
C44G U49G U76C gave a self-cleavage of 0.1.
With C44A U60C U80C the self-cleavage was 0.39.
A47G U51A U58A A64U showed a self-cleavage of 0.11.
Variant U43A U54A A57G G63A U72C has a self-cleavage of 1.22.
With U43C U49A U80C the self-cleavage was 0.48.
U43C U67C U78A gave a self-cleavage of 0.11.
With C44U U54C U80C the self-cleavage was 0.32.
Work on U43A U54C U66C G70A U72A U80C yielded a self-cleavage of 0.18.
In the case of G42A A64G U67A U72G, the self-cleavage is reported as 0.1.
For A45G A47G A64U, the self-cleavage was 0.09.
U48A G55A U58A showed a self-cleavage of 0.2.
Work on U43C U60C U69A U80A yielded a self-cleavage of 0.15.
A45G U48C A64G gave a self-cleavage of 0.16.
In the case of A45G U66C U72C A77G, the self-cleavage is reported as 0.26.
With U43A U49C A77U the self-cleavage was 0.59.
For G42A A64U U69G, the self-cleavage was 0.15.
Work on A45U U60A U69C yielded a self-cleavage of 0.47.
G46A A47G G63U A77G gave a self-cleavage of 0.57.
For A47G U54C U69C, the self-cleavage was 0.45.
For U43A A45G A47U, the self-cleavage was 0.31.
With U43A A56U A64G U76G the self-cleavage was 0.39.
Variant A45U U58C A77G has a self-cleavage of 0.42.
Variant G42A U58A A65G has a self-cleavage of 0.06.
With A47G U60A U72C the self-cleavage was 0.57.
In the case of U43A A56G A57U, the self-cleavage is reported as 0.46.
With U41C U60C A64G the self-cleavage was 0.33.
In the case of A45U U66C U78C, the self-cleavage is reported as 0.21.
With A45G G63A A64C the self-cleavage was 0.36.
Work on U41C U60C C81A yielded a self-cleavage of 0.64.
A47C U49C U69A U80A gave a self-cleavage of 0.09.
Work on U41G U60A A64G yielded a self-cleavage of 0.16.
In the case of A45C U54C A65G, the self-cleavage is reported as 0.16.
With A47G G70U U72C the self-cleavage was 0.41.
In the case of A47G U67C C71U C79U, the self-cleavage is reported as 0.16.
In the case of U48A U54C U78C, the self-cleavage is reported as 0.3.
For U43C A45G U49G U76C, the self-cleavage was 0.21.
U43C A56G A57G U60A gave a self-cleavage of 0.12.
Variant A47U A56C U67C C79A has a self-cleavage of 0.06.
Work on C44U C62U U76A yielded a self-cleavage of 0.14.
Variant U43C U58C G63U has a self-cleavage of 0.13.
Work on U43A A45G U48C A56G yielded a self-cleavage of 0.23.
A45G A56G U60C gave a self-cleavage of 0.89.
For G42U U49C C59U U78C, the self-cleavage was 0.06.
With A47G C62U U72A the self-cleavage was 0.35.
Work on A45G G53C U54A U66C yielded a self-cleavage of 0.56.
For C44G C50G U58C U60A U67C, the self-cleavage was 0.05.
With U43C U51A A57G A65G A77G the self-cleavage was 0.28.
With A45C U48C U51C A77C the self-cleavage was 0.03.
For A45U U66C U76C A77G, the self-cleavage was 0.05.
Work on U43A U48C A56U U69C U76C yielded a self-cleavage of 0.08.
In the case of G46U U49A U54C U60C, the self-cleavage is reported as 0.15.
A47G U48C U51C gave a self-cleavage of 0.15.
With A47G U48C U51A the self-cleavage was 0.23.
For A47G U49A A57G, the self-cleavage was 0.23.
U43C G55U U72A gave a self-cleavage of 0.33.
Work on A47G U49C U60C yielded a self-cleavage of 0.17.
With A47G U48A U67C the self-cleavage was 0.18.
Variant U41C U67A A77U has a self-cleavage of 0.61.
Variant A45G A57U U60G U66C has a self-cleavage of 0.1.
A45U A57G U69A showed a self-cleavage of 0.18.
For G42U U58C U60C, the self-cleavage was 0.17.
With U43C A45G U66C U69A the self-cleavage was 0.09.
A45U A75U U80A gave a self-cleavage of 0.59.
U43A U78A C81U gave a self-cleavage of 1.15.
With U43C U58C U74C the self-cleavage was 0.12.
A47U U72C A75G showed a self-cleavage of 0.59.
A45G A47U A56G U74C gave a self-cleavage of 0.
Work on A45G U60A U74C yielded a self-cleavage of 0.98.
A47G A75G U78C gave a self-cleavage of 0.67.
With U41C U69C U72A the self-cleavage was 0.45.
Variant C44G A47G U69C U74C has a self-cleavage of 0.07.
G42C A64C A65G gave a self-cleavage of 0.17.
U41C U66A U69C showed a self-cleavage of 0.15.
In the case of A47U G53C U78C, the self-cleavage is reported as 0.29.
With A47G U49A U60C U69A the self-cleavage was 0.11.
A45U G70A U72C U80C showed a self-cleavage of 0.13.
For A47G U60C U69A U76C, the self-cleavage was 0.33.
In the case of U43C C50A A65U U69G U78C, the self-cleavage is reported as 0.08.
With U41C U72A U80C the self-cleavage was 1.28.
With A45G A56G A57G U60A U78C the self-cleavage was 0.21.
A45U U60C A64U U74A A75C gave a self-cleavage of 0.23.
For C44U A45G A57G, the self-cleavage was 0.23.
With A45G U49C A56G A65G U69C A75G the self-cleavage was 0.07.
U43C U54C A64G U66C U69C A77G gave a self-cleavage of 0.23.
With U43A U51A A64U U69A the self-cleavage was 0.54.
With U43C G52A A64G A77G U78A the self-cleavage was 0.81.
In the case of A45U U60A U74C, the self-cleavage is reported as 1.22.
U43G U58C U72A gave a self-cleavage of 0.07.
A47G U48C U54C showed a self-cleavage of 0.17.
For A47G U48C U54A, the self-cleavage was 0.42.
Variant U43C G46U A64G has a self-cleavage of 0.21.
Work on U41C U60C A64G U66C yielded a self-cleavage of 0.25.
U41C U60A A64G U76A showed a self-cleavage of 0.28.
G46U A65G U74C showed a self-cleavage of 0.15.
A47U A64U U74C showed a self-cleavage of 0.2.
In the case of U43C A47G A77U, the self-cleavage is reported as 0.64.
A47G A65G U66C U72G gave a self-cleavage of 0.1.
For U43G A77G U78C, the self-cleavage was 0.2.
For A47G U66A G70A, the self-cleavage was 0.86.
With A47C U60C A75U the self-cleavage was 0.19.
Variant U43C G46U U67C U72C has a self-cleavage of 0.04.
Variant A45G U48C A65U U72A U78C has a self-cleavage of 0.09.
With U41G A47G A57U U69G the self-cleavage was 0.21.
In the case of U43C A47G U74C, the self-cleavage is reported as 0.8.
In the case of G46A A57G U58A U67C, the self-cleavage is reported as 0.15.
For U43A U49C U51C, the self-cleavage was 0.35.
For A45G A56U U66C U72C, the self-cleavage was 0.22.
For A45U U51A U58C, the self-cleavage was 0.17.
Variant A45G U51A U72C U78A has a self-cleavage of 1.15.
A47G G53C U58C G63A gave a self-cleavage of 0.57.
Work on U43C U54C A64U U67A yielded a self-cleavage of 0.2.
For U48A U49C U66A U76C, the self-cleavage was 0.19.
In the case of A45U U51C A64U U72C U74G, the self-cleavage is reported as 0.15.
With C44G U67A A75G the self-cleavage was 0.13.
In the case of A45G U51G U69A U72A, the self-cleavage is reported as 0.48.
With A47U A57G C59U the self-cleavage was 0.46.
In the case of U43C A45U C59A, the self-cleavage is reported as 0.16.
Variant A45G U48C U51A A65G U67A U72C has a self-cleavage of 0.36.
With U41G A45G U74C the self-cleavage was 0.61.
In the case of A45G A57G U58A U67C U72C, the self-cleavage is reported as 0.28.
In the case of A45G A56U U60C U72A, the self-cleavage is reported as 0.76.
Work on A45G U60C C71G yielded a self-cleavage of 0.27.
A47U U72A A75U gave a self-cleavage of 0.45.
Variant A45G A47G U60G has a self-cleavage of 0.49.
With U43C A56U U58A the self-cleavage was 0.11.
